{"source": "PubChem BioAssay AID1671194", "about": "(National Center for Advancing Translational Sciences (NCATS), 2021)", "note": "Out of some 140,000 compounds screened, about 240 (0.17%) were called active. The inconclusive results got no clear call from the source; some entries with a clear call stand among them for comparison. Calls follow the shape of the dose curve; as a rule, active = well fitted inhibition curve with a large enough effect; inconclusive = small, poorly fitted or top-dose-only effect; inactive = no such curve, though single readings can be large or run the other way. Where the call is inconclusive, the potency comes from a doubtful curve fit. Potency is read from the fitted curve at half-maximal effect; tags tell the direction and shape of the fitted curve.", "data": [{"assay": "Primary qHTS assay for inhibitors of alpha-synuclein gene (SNCA) expression; also: nearly all actives have a fitted effect of over 45% in size", "details": "HEK-293 SNCA-luciferase knock-in, luminescence, 24 h; series mostly up to 57.2 µM", "values": [{"molecule": "CC1=C[C@@H](CNCc2ccco2)[C@H](C(C)C)C[C@H]1Cc1nnc(C(C)(C)C)o1", "Potency": "inconclusive: 31.6 µM [inhibitor, single point]"}, {"molecule": "Cc1ccccc1-c1cc2c(ccn2C)c(C(=O)NCCc2cnc[nH]2)n1", "Potency": "inactive"}, {"molecule": "O=C(Nc1ccccn1)[C@@H]1C[C@@H](c2ccc(F)cc2)N([S+](=O)([O-])c2ccccc2)C1", "Potency": "inconclusive: 56.2 µM [inhibitor, single point]"}, {"molecule": "Cc1nc(-c2ccc(F)cc2)n(CC(=O)Nc2cccc(C#N)c2)c(=O)c1CCO", "Potency": "inconclusive: 3.16 µM [inhibitor, single point]"}, {"molecule": "COc1ccc(NC(=O)CN2C(=O)NC(c3ccccc3Cl)C3=C2COC3=O)cc1", "note": "(centres undefined)", "Potency": "inconclusive: 4.47 µM [inhibitor, single point]"}, {"molecule": "CC1CCCN(C(=O)C2CCCN(c3cnc4nccnc4c3)C2)C1", "note": "(centres undefined)", "Potency": "inactive"}, {"molecule": "Cc1cn2nc(C(=O)NCc3ccc(C(C)C)cc3)cc2c(N2CCSCC2)n1", "Potency": "inactive"}, {"molecule": "Cc1noc(-c2cccs2)c1C(=O)NC(C)c1cccc2ccccc12", "note": "(centres undefined)", "Potency": "inactive"}, {"molecule": "CC(C)OC(=O)C(C)(C)Oc1ccc(C(=O)c2ccc(Cl)cc2)cc1", "Potency": "inconclusive: 38.3 µM [inhibitor, single point]"}, {"molecule": "COCCNC(=O)C1CCCN1c1nccc(Nc2ccccc2F)n1", "note": "(centres undefined)", "Potency": "inconclusive: 11.2 µM [inhibitor, partial curve, poor fit]"}, {"molecule": "Cc1cc(C(=O)N2CCCCCC2c2nnc(C)o2)n(C)n1", "note": "(centres undefined)", "Potency": "inactive"}, {"molecule": "CN(C)CC(=O)N1Cc2ccccc2CC2(CCCN(CC3CCNC3)C2)C1", "note": "(centres undefined)", "Potency": "inconclusive: 8.91 µM [inhibitor, full curve, poor fit]"}, {"molecule": "CS(=O)(=O)N1CC2(CCN(CC3CC3)CC2)Cc2ccccc21", "Potency": "inconclusive: 10 µM [inhibitor, single point]"}, {"molecule": "CCOc1ccccc1NC(=O)Cn1c(N2CCc3ccccc3C2)nc(C)cc1=O", "Potency": "inconclusive: 28.2 µM [inhibitor, single point]"}, {"molecule": "COCC1CN(C2CCC2)CC12CCN(C(=O)C1(c3ccccc3)CC1)CC2", "note": "(centres undefined)", "Potency": "inactive"}, {"molecule": "Cc1ccc(-c2ccc(CCC(=O)N[C@@H]3CCOC[C@H]3OCC(=O)O)o2)cc1", "Potency": "inactive"}, {"molecule": "Cn1ccnc1C(=O)N1CCC(C(=O)N2CCCCCCNC(=O)CC2)CC1", "Potency": "inconclusive: 3.98 µM [inhibitor, partial curve]"}, {"molecule": "Cc1nc(CC2CCN(C(=O)Nc3ccc4c(c3)OCCO4)CC2)n[nH]1", "Potency": "inconclusive: 3.98 µM [inhibitor, full curve, poor fit]"}, {"molecule": "CCC1CCN(CC2(O)CCCN(Cc3cc(OC)ccc3F)C2=O)CC1", "note": "(centres undefined)", "Potency": "inactive"}, {"molecule": "O=[S+]1([O-])NC2(CCN(Cc3ccc(OC(F)(F)F)cc3)C2)CNc2ccccc21", "note": "(centres undefined)", "Potency": "inconclusive: 15.8 µM [inhibitor, partial curve, poor fit]"}, {"molecule": "COC(=O)Cn1c(C2CC(=O)N(c3c(C)cccc3C)C2)nc2ccccc21", "note": "(centres undefined)", "Potency": "inconclusive: 7.08 µM [inhibitor, single point]"}, {"molecule": "CC(=O)N1CCC([C@@H]2CN(Cc3ccccc3C(F)(F)F)C[C@H]2CO)CC1", "Potency": "inconclusive: 39.8 µM [inhibitor, partial curve, poor fit]"}, {"molecule": "CCOc1ccccc1C(=O)N1CCN(C(=O)c2nnn3c2COC(c2ccc(Cl)cc2)C3)CC1", "note": "(centres undefined)", "Potency": "inconclusive: 17.8 µM [inhibitor, partial curve, poor fit]"}, {"molecule": "CCCCc1ccc(NC(=O)CN2C(=O)NC(c3ccccc3OCC)C3=C2COC3=O)cc1", "note": "(centres undefined)", "Potency": "inconclusive: 28.2 µM [inhibitor, single point]"}, {"molecule": "Cc1cccc(OCC(=O)N2CCC3(CC2)NC(=O)N(c2ccccc2Cl)N3)c1", "Potency": "inconclusive: 39.8 µM [inhibitor, single point]"}, {"molecule": "O=C(NCCc1ccc(Cl)cc1Cl)C1CNCCO1", "note": "(centres undefined)", "Potency": "inactive"}, {"molecule": "O=C(Nc1cc(-c2ccncc2)nn1-c1ccccc1)c1ccc(C(F)(F)F)cc1", "Potency": "inconclusive: 10 µM [inhibitor, partial curve]"}, {"molecule": "Cc1csc2nc(COC(=O)c3ccccc3NC(=O)c3cccc(Br)c3)cc(=O)n12", "Potency": "inconclusive: 39.8 µM [inhibitor, single point]"}, {"molecule": "O=C1NCc2ccccc2CC12CCCN2Cc1ccc(O)cc1O", "note": "(centres undefined)", "Potency": "inactive"}, {"molecule": "CCN(CC)CCOc1ccc(Nc2ncc3cc(-c4c(Cl)cccc4Cl)c(=O)n(C)c3n2)cc1", "Potency": "active: 3.04 µM"}, {"molecule": "O=C(CNC(=O)c1ccc(-c2cccc(C(F)(F)F)c2)cc1)NCCc1ccc(Cl)cc1", "Potency": "inactive"}, {"molecule": "C=CCNC(=O)N[C@H]1CO[C@H]2[C@@H]1OC[C@@H]2Nc1nccc(-c2ccc(OC)cc2)n1", "Potency": "inconclusive: 50.1 µM [inhibitor, single point]"}, {"molecule": "CC(=O)N[C@H]1CC[C@]2(C)CCC([C@H](C)C(=O)NCc3ccc(F)cc3)[C@H](O)[C@H]2[C@@H]1C", "note": "(some centres undefined)", "Potency": "inconclusive: 10 µM [inhibitor, partial curve, poor fit]"}, {"molecule": "Cc1ccc(C(=O)c2cn(Cc3cccc(Cl)c3)c3nc(C)ccc3c2=O)cc1", "Potency": "inconclusive: 39.8 µM [inhibitor, single point]"}, {"molecule": "CCCNC(=O)[C@H]1O[C@H]1C(=O)N[C@H](C(=O)N1CCC[C@@H]1C(=O)OC)C(C)CC", "note": "(some centres undefined)", "Potency": "inconclusive: 48.2 µM [inhibitor, partial curve, poor fit]"}, {"molecule": "Cc1cc2c(cc1S(=O)(=O)NCc1ccc(F)cc1)n(C)c(=O)c(=O)n2C", "Potency": "inactive"}, {"molecule": "COc1cc(OC)cc(C(=O)N2CCCC(c3noc(COc4ccccc4)n3)C2)c1", "note": "(centres undefined)", "Potency": "inconclusive: 25.1 µM [inhibitor, partial curve, poor fit]"}, {"molecule": "CC(=NNC(=S)N1CCC1)c1ccccn1", "Potency": "inconclusive: 10.8 µM [inhibitor, full curve, poor fit]"}, {"molecule": "O=C(NCCc1ccccc1)c1ccc2c(c1)N(Cc1ccc(Cl)cc1)C(=O)CS2", "Potency": "inconclusive: 39.8 µM [inhibitor, single point]"}, {"molecule": "O=S(=O)(NC[C@H]1O[C@@H](CO)[C@@H](O)[C@H]1N1CCN(c2ncccn2)CC1)c1ccccc1", "Potency": "inconclusive: 0.708 µM [inhibitor, full curve, poor fit]"}, {"molecule": "CCCN1CCC2(CCN(C(=O)c3cccc(Cl)c3)CC2)Oc2ccccc21", "Potency": "inactive"}, {"molecule": "CC1CCc2c(sc(NC(=O)Cc3ccccc3)c2C(=O)Nc2ccc(Cl)cc2)C1", "note": "(centres undefined)", "Potency": "inconclusive: 39.8 µM [inhibitor, single point]"}, {"molecule": "COCCn1c(C)cc(O)c(C(c2ccccc2)N2CCN(CCO)CC2)c1=O", "note": "(centres undefined)", "Potency": "inconclusive: 25.1 µM [inhibitor, single point]"}, {"molecule": "Cc1ccc(CCNC(=O)CCCn2c(=O)c3ccccc3n(CC(=O)Nc3cc(Cl)ccc3C)c2=O)cc1", "Potency": "inconclusive: 7.94 µM [inhibitor, single point]"}, {"molecule": "Cc1ccc(C(=O)N2CCCCCCNC(=O)[C@@H]3C[C@@H](C(=O)N4CCc5ccccc5C4)C[C@@H]32)s1", "Potency": "inconclusive: 5.62 µM [inhibitor, full curve, poor fit]"}, {"molecule": "Cc1cccc(N2CCN(C(=O)c3ccc4c(c3)c(C)c(C)n4C)CC2)c1C", "Potency": "inactive"}, {"molecule": "CCc1ccc(NC(=O)Cn2c(N3CCc4ccccc4C3)nc(C)cc2=O)cc1", "Potency": "inactive"}, {"molecule": "COCc1ncc(CN2CCC(Cc3nncn3-c3ccccc3)CC2)cn1", "Potency": "inconclusive: 31.6 µM [inhibitor, single point]"}, {"molecule": "COc1ccc(CN(C)S(=O)(=O)c2nnc(NC(=O)C(C)C)s2)cc1OC", "Potency": "inconclusive: 1.26 µM [inhibitor, full curve, poor fit]"}, {"molecule": "Cc1noc2c(NC3CCN(C)CC3)cc(-c3cccnc3)nc12", "Potency": "inactive"}, {"molecule": "O=C(C[C@@H]1O[C@H](CNC(=O)C2CC2)[C@@H](O)[C@H]1O)NCCN1CCOCC1", "Potency": "inconclusive: 56.2 µM [inhibitor, single point]"}, {"molecule": "CN1CCN(C(=O)C2CN(c3ccnc4ccnn34)C2)CC1", "Potency": "inactive"}, {"molecule": "COc1ccc(Cl)cc1NC(=O)Cn1c(=O)n(Cc2nc(C)no2)c(=O)c2ccccc21", "Potency": "inconclusive: 3.55 µM [inhibitor, single point]"}, {"molecule": "Cc1ccc(C)c(CN2CC[C@@H]3CN(S(C)(=O)=O)[C@@H]3C2)c1", "Potency": "inconclusive: 39.8 µM [inhibitor, single point]"}, {"molecule": "CCS(=O)(=O)N1CCc2nc(-c3ccccc3)[nH]c2C1", "Potency": "inactive"}, {"molecule": "CCOC(=O)c1c(NC(=O)COc2cc(C)ccc2C(C)C)sc2c1CCCC2", "Potency": "inactive"}, {"molecule": "COCC(=O)N1CCN(C(=O)c2cccnc2)C[C@H]1C(=O)N[C@@H](CC1CCCCC1)C(N)=O", "Potency": "inconclusive: 10 µM [inhibitor, partial curve]"}, {"molecule": "COc1ccccc1C(=O)NC1CCN(Cc2cccc(-c3cccs3)c2)CC1", "Potency": "inconclusive: 4.47 µM [inhibitor, partial curve]"}, {"molecule": "O=C(NCc1cccc(F)c1)c1csc(N2CCN(c3ccc(Cl)cc3)CC2)n1", "Potency": "inconclusive: 10 µM [inhibitor, partial curve]"}, {"molecule": "COCCNC(=O)[C@H]1C[C@H](Oc2ccccc2)CN1Cc1ccc(OC(F)(F)F)cc1", "Potency": "inconclusive: 2.82 µM [inhibitor, partial curve, poor fit]"}, {"molecule": "O=C(NC1CC1)c1cc(-c2cccc(C(F)(F)F)c2)c2cccn2n1", "Potency": "inconclusive: 56.2 µM [inhibitor, single point]"}, {"molecule": "CCN1c2cc(C(=O)Nc3cccc(SC)c3)ccc2C(=O)N2CCCCCC21", "note": "(centres undefined)", "Potency": "inconclusive: 44.7 µM [inhibitor, partial curve, poor fit]"}, {"molecule": "CCCn1c(C)cnc1CC1CCCN(C(=O)c2ccc(OC)cc2)C1", "note": "(centres undefined)", "Potency": "inactive"}, {"molecule": "CCOc1ccc(NC(=O)c2cc(=O)c3cc(CC)ccc3o2)cc1", "Potency": "inconclusive: 7.08 µM [inhibitor, single point]"}]}]}
